Test results published in the antibiotic and cytotoxicity screens of Wong et al. (2023).
This is one part of the list.

Experiments:
HSkMC = human skeletal muscle cells; experiment: cytotoxicity call (relative viability < 0.9); conditions: 10 µM
HepG2 = experiment: cytotoxicity call (relative viability < 0.9); conditions: 10 µM
S. aureus RN4220 = experiment: growth inhibition call (relative growth <= 0.2); conditions: 50 µM

| Structure (SMILES) | cytotoxicity call (HSkMC) | cytotoxicity call (HepG2) | growth inhibition call (S. aureus RN4220) |
| --- | --- | --- | --- |
| FCOC(C(F)(F)F)C(F)(F)F | inactive | inactive | inactive |
| O=C(C[C@@H]1CC[C@@H]2NC[C@@H](O)COC[C@H]2O1)NCCN1CCCC1 | inactive | inactive | inactive |
| CSc1nc(C)cc(OCCO)n1 | inactive | inactive | inactive |
| C[C@H](CO)N1C[C@H](C)[C@@H](CN(C)S(=O)(=O)c2ccc(F)cc2)OCCCC[C@H](C)Oc2ccc(NS(=O)(=O)c3ccc(Cl)cc3)cc2C1=O | inactive | inactive | inactive |
| COCCn1c(N)c(N(Cc2ccccc2)C(=O)C2=COCCO2)c(=O)[nH]c1=O | inactive | inactive | inactive |
| C[C@@H]1CCCCO[C@@H](CN(C)C(=O)C2CCCCC2)[C@H](C)CN([C@H](C)CO)C(=O)c2cc(NS(=O)(=O)c3ccc(F)cc3)ccc2O1 | inactive | inactive | inactive |
| CC(C)n1nnc(CC(=O)NN)n1 | inactive | inactive | inactive |
| COc1ccc(NC(=O)Nc2ccc3c(c2)C(=O)N([C@@H](C)CO)C[C@@H](C)[C@H](CN(C)C(=O)C2CCCCC2)OCCCC[C@H](C)O3)cc1 | inactive | inactive | inactive |
| Cc1noc(C)c1NC(=O)Nc1ccc2c(c1)C(=O)N([C@@H](C)CO)C[C@@H](C)[C@H](CN(C)Cc1ccc3c(c1)OCO3)OCCCC[C@H](C)O2 | inactive | inactive | inactive |
| Cc1noc(C)c1NC(=O)N(C)C[C@@H]1OCCCC[C@H](C)Oc2ccc(NC(=O)NC3CCCCC3)cc2C(=O)N([C@@H](C)CO)C[C@@H]1C | inactive | inactive | inactive |
| C[C@H]1CCCCO[C@@H](CN(C)C(=O)CCC(F)(F)F)[C@@H](C)CN([C@@H](C)CO)C(=O)c2cc(NC(=O)c3ccccc3)ccc2O1 | inactive | inactive | inactive |
| C[C@H]1CN([C@@H](C)CO)C(=O)Cc2cc(NS(=O)(=O)c3cn(C)cn3)ccc2O[C@@H]1CN(C)C(=O)NC1CCCCC1 | inactive | inactive | inactive |
| C[C@@H]1CCCCO[C@H](CN(C)S(C)(=O)=O)[C@@H](C)CN([C@@H](C)CO)C(=O)c2cc(NC(=O)CCCN(C)C)ccc2O1 | inactive | inactive | inactive |
| CN1C(=O)[C@@H]2CN(c3ncccn3)C[C@@H]2C12CCN(S(C)(=O)=O)CC2 | inactive | inactive | inactive |
| COc1ccc(C(=O)Nc2cccc(CN3C(=O)[C@@]4(O[C@@H](CC(=O)N(CCO)Cc5ccccc5)[C@H]([Si](C)(C)c5ccc(OC)cc5)[C@H]4C)c4ccccc43)c2)cc1 | inactive | active | inactive |
| C[C@@H]1CCCCO[C@@H](CN(C)CC2CCCCC2)[C@H](C)CN([C@@H](C)CO)C(=O)c2cc(NC(=O)CCC(F)(F)F)ccc2O1 | inactive | inactive | inactive |
| Cc1noc(C)c1NC(=O)Nc1ccc2c(c1)CC(=O)N([C@@H](C)CO)C[C@@H](C)[C@@H](CN(C)S(=O)(=O)c1cccs1)O2 | inactive | inactive | inactive |
| COc1cccc(S(=O)(=O)N(C)C[C@@H]2Oc3ncc(C#CCC(C)C)cc3C(=O)N([C@H](C)CO)C[C@@H]2C)c1 | inactive | inactive | inactive |
| C[C@@H]1CN([C@H](C)CO)C(=O)c2cc(NC(=O)Nc3ccccc3)ccc2O[C@H]1CN(C)S(=O)(=O)c1cn(C)cn1 | inactive | active | inactive |
| C[C@H](CO)N1C[C@H](C)[C@@H](CN(C)Cc2ccc(C(F)(F)F)cc2)OCCCC[C@H](C)Oc2ccc(NC(=O)CCC(F)(F)F)cc2C1=O | inactive | inactive | inactive |
| Cc1ccc(S(=O)(=O)N(C)C[C@H]2Oc3c(NS(=O)(=O)c4c(C)noc4C)cccc3C(=O)N([C@H](C)CO)C[C@H]2C)cc1 | inactive | inactive | inactive |
| C[C@@H]1CCCCO[C@H](CN(C)S(=O)(=O)c2cccs2)[C@@H](C)CN([C@H](C)CO)C(=O)c2cc(NC(=O)CCCCCC(=O)Nc3ccccc3N)ccc2O1 | inactive | inactive | inactive |
| C[C@@H]1CCCCO[C@H](CN(C)C(=O)NC2CCCCC2)[C@@H](C)CN([C@H](C)CO)C(=O)c2cc(NC(=O)Nc3ccc4c(c3)OCO4)ccc2O1 | inactive | inactive | inactive |
| Cc1ccc(S(=O)(=O)Nc2ccc3c(c2)CC(=O)N([C@H](C)CO)C[C@@H](C)[C@@H](CN(C)Cc2ccc(Cl)c(Cl)c2)O3)cc1 | active | active | inactive |
